Test results reported in the supplement of paper PMC4604168 (melanoma cell lines).
The other results are listed elsewhere or left out. Repeats are few or missing, and single values can be far off.

These molecules were tested on SkMel30 (assay: cell count relative to DMSO control; melanoma cells; higher = more viable cells). Settings: library dose: standard library concentration; 72 h.
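Note: cells treated in 1,536-well plates, then fixed and DAPI-stained, with nuclei counted from automated high-throughput microscope images.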

Structure (SMILES)	cell count [%]
O=C(Nc1cc(C(F)(F)F)cc(C(F)(F)F)c1)c1cc(Cl)ccc1O + Nc1ncn([C@H]2C[C@H](O)[C@@H](CO)O2)c(=O)n1 [decitabine] (first compound 0.08 µM, partner dose 0.5 µM)	103
O=C(O)[C@@H]1[O][Sb](=[O])([O][Sb]2(=[O])[O][C@H]([C@H](O)CO)[C@H](O)[C@H](C(=O)O)[O]2)[O][C@H]([C@H](O)CO)[C@@H]1O (some centres undefined) [stibogluconate] + N#Cc1c(O)c2c(-c3ccc(-c4ccccc4O)cc3)csc2[nH]c1=O [A769662] (first compound 10 µM, partner dose 10 µM)	95.8
O=C(Nc1ccccc1)c1cc([N+](=O)[O-])ccc1Cl + Cc1cc([N+](=O)[O-])ccc1NS(=O)(=O)c1cc(Cl)ccc1Cl [FH535] (first compound 10 µM, partner dose 5 µM)	77.7
O=C(Nc1cc(C(F)(F)F)cc(C(F)(F)F)c1)c1cc(Cl)ccc1O + Nc1ccn([C@@H]2O[C@H](CO)[C@@H](O)C2(F)F)c(=O)n1 [gemcitabine] (first compound 0.08 µM, partner dose 0.002 µM)	100
O=C(Nc1cc(C(F)(F)F)cc(C(F)(F)F)c1)c1cc(Cl)ccc1O + C=CCn1c(=O)c2cnc(Nc3ccc(N4CCN(C)CC4)cc3)nc2n1-c1cccc(C(C)(C)O)n1 [MK1775] (first compound 0.08 µM, partner dose 0.1 µM)	84.1
O=C(Nc1cc(C(F)(F)F)cc(C(F)(F)F)c1)c1cc(Cl)ccc1O + CCCCCCCCCCCC1=C(O)C(=O)C=C(O)C1=O [Embelin] (first compound 0.08 µM, partner dose 6 µM)	86.2
Cn1nnc2c(C(N)=O)ncn2c1=O [temozolomide] + CCN(CC)CCCCNc1ncc2cc(-c3cc(OC)cc(OC)c3)c(NC(=O)NC(C)(C)C)nc2n1 [PD173074] (first compound 10 µM, partner dose 0.5 µM)	82.6
O=C(O)[C@@H]1[O][Sb](=[O])([O][Sb]2(=[O])[O][C@H]([C@H](O)CO)[C@H](O)[C@H](C(=O)O)[O]2)[O][C@H]([C@H](O)CO)[C@@H]1O (some centres undefined) [stibogluconate] + Nc1ncn([C@H]2C[C@H](O)[C@@H](CO)O2)c(=O)n1 [decitabine] (first compound 10 µM, partner dose 0.5 µM)	125
O=C(O)c1ccc2c(c1)nc(Nc1cccc(Cl)c1)c1ccncc12 + C=CCn1c(=O)c2cnc(Nc3ccc(N4CCN(C)CC4)cc3)nc2n1-c1cccc(C(C)(C)O)n1 [MK1775] (first compound 2 µM, partner dose 0.1 µM)	55.8
O=C(O)c1ccc2c(c1)nc(Nc1cccc(Cl)c1)c1ccncc12 + COc1cc(N2CCC(N3CCN(C)CC3)CC2)ccc1Nc1ncc(Cl)c(Nc2ccccc2S(=O)(=O)C(C)C)n1 [NVP-TAE684] (first compound 2 µM, partner dose 0.4 µM)	83.3
O=C(O)c1ccc2c(c1)nc(Nc1cccc(Cl)c1)c1ccncc12 + Cc1cc([N+](=O)[O-])ccc1NS(=O)(=O)c1cc(Cl)ccc1Cl [FH535] (first compound 2 µM, partner dose 5 µM)	67.2
O=C(Nc1cc(C(F)(F)F)cc(C(F)(F)F)c1)c1cc(Cl)ccc1O + Cn1c(Nc2ccc(C(F)(F)F)cc2)nc2cc(Oc3ccnc(-c4ncc(C(F)(F)F)[nH]4)c3)ccc21 [CHIR265] (first compound 0.08 µM, partner dose 0.4 µM)	75.1
O=C(O)[C@@H]1[O][Sb](=[O])([O][Sb]2(=[O])[O][C@H]([C@H](O)CO)[C@H](O)[C@H](C(=O)O)[O]2)[O][C@H]([C@H](O)CO)[C@@H]1O (some centres undefined) [stibogluconate] + COc1cc2ncnc(Nc3ccc(Oc4ccccc4)cc3)c2cc1OC [SrcI1] (first compound 10 µM, partner dose 10 µM)	91.8
O=C(O)c1ccc2c(c1)nc(Nc1cccc(Cl)c1)c1ccncc12 + C#Cc1cccc(Nc2ncnc3cc(OCCOC)c(OCCOC)cc23)c1 [erlotinib] (first compound 2 µM, partner dose 4 µM)	56.3
